44 sequences from the supplement of paper PMC11417369 can be followed below.

± gives the standard deviation of the averaged measurements. The list shows a part of the results.

For this assay, the system named is PfAP2-EXP AP2 domain (GST-tagged). Nature of the assay: gcPBM binding intensity (ln(normalized median fluorescence intensity)); higher = stronger DNA binding. In outline: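 Each value is the highest Masliner-normalised natural-log median intensity across replicate spots of either orientation of a probe. The probes were primer-extended double-stranded 36-bp intergenic genomic sequences on an Agilent 4 × 180k array, alongside negative controls, exposed for 1 h to GST-tagged P. falciparum DNA-binding domains expressed in E. coli. Bound protein was picked up with Alexa488 anti-GST antibody and scanned at 488 nm.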
As for “GGAATAACCGGACACACACACACATATATATATATA [CACACA_site5874]”, the “gcPBM binding intensity (ln)” value is 10.2 ± 0.51.

For the sequence “TCTAATCTGGAGAAAAGTACATAGTATCTGGTAACA [XGTACX_site2540]”, the “gcPBM binding intensity (ln)” value is 8.53 ± 0.41.

In the case of “TTATTCATACAATATCGTACATATATATATATATAT [XGTACX_site1185]”, the “gcPBM binding intensity (ln)” value is 10.2 ± 0.33.

In the case of “ATCTTATATATATGTGTGCACGTATATATAAGCAAT [GTGCAC_site9933]”, the “gcPBM binding intensity (ln)” value was 8.68 ± 0.18.

Regarding “ATTATATATATATATACACACACATATATATATATA [CACACA_site8373]”, the “gcPBM binding intensity (ln)” value is 10 ± 0.4.

For “GTACACCTATAATATACACACAACAAATATGCACAT [CACACA_site6603]”, the “gcPBM binding intensity (ln)” value stood at 8.92 ± 0.085.

As for TTATAAATAAAAAGAGTGCAATTATAAATATATATA, the “gcPBM binding intensity (ln)” value worked out at 8.735 ± 0.035.

For “AAATAAAATATGAACAGTACTTTTGATATAACCATT [XGTACX_site1873]”, the “gcPBM binding intensity (ln)” value came out at 8.68 ± 0.48.

Regarding “AAAAAAATACAAATATGTACACATATATATTTAAAA [XGTACX_site4729]”, the “gcPBM binding intensity (ln)” value is 8.28 ± 0.22.

On to “CAATTTATAAAGAAAACACACATATACCTATATACA [CACACA_site6710]”, for which the “gcPBM binding intensity (ln)” value turned out to be 8.66 ± 0.35.

For the sequence “TACACGCATAAACACACACACACACCCATATATATA [CACACA_site8114]”, the “gcPBM binding intensity (ln)” value was determined as 8.79 ± 0.35.

Consider “TTTATATTTAAAGAAACATGCATTTATCATATATAC [TGCATGCA_site173]”, for which the “gcPBM binding intensity (ln)” value is 8.54 ± 0.33.

Take “AAAAAAATAAAATACAAAATGGCTATACAAAATAAA [GTGCAC_negctrl_site535]”: the “gcPBM binding intensity (ln)” value turned out to be 8.73 ± 0.47.

In the case of “TTTGTTGACGAACACACACACATACATATTTATATA [CACACA_site7141]”, the “gcPBM binding intensity (ln)” value was 8.63 ± 0.37.

In the case of “TCTATAATATTTTTCACACACCATTTCCTTAAACAC [CACACA_site6747]”, the “gcPBM binding intensity (ln)” value was found to be 8.7 ± 0.53.

On to “ATTACATATGTCGCTTGTACGCATAATTTTTTTATA [XGTACX_site5782]”, for which the “gcPBM binding intensity (ln)” value was found to be 8.97 ± 0.45.

As for “ATTTTTTTATTTTGAAGTACATAAACTTTATATATA [XGTACX_site1746]”, the “gcPBM binding intensity (ln)” value turned out to be 8.5 ± 0.35.

Turning to “ATTTAAAAAAAAAGACGTACATTTATATAGAATCCT [XGTACX_site6457]”, the “gcPBM binding intensity (ln)” value was 8.55 ± 0.18.

Consider “TAATTTTTATTCAGTTCACACACGCTTTAATATTAT [CACACA_site9147]”, for which the “gcPBM binding intensity (ln)” value is 8.69 ± 0.47.

“ATAAATTTACATTTTTTTTTTTTTTTTTTTTTTTTT [GTGCAC_negctrl_site689]”: the “gcPBM binding intensity (ln)” value was found to be 9.07 ± 0.014.

Regarding GTATAGTACAAATAAGTGCATATAAAAGAAATACAG, the “gcPBM binding intensity (ln)” value worked out at 9.17 ± 0.3.

As to “AAAAAATATACATATTGTACATTTTTTATTAACACA [XGTACX_site6415]”, the “gcPBM binding intensity (ln)” value came out at 8.27 ± 0.39.

As to “ATTACCAAAAAAAGGTGTACAAATATAATTATGAAA [XGTACX_site44]”, the “gcPBM binding intensity (ln)” value is 8.79 ± 0.49.

Consider “ATTTTTTTTCGTAATTGTTCTTAATGTTGAATTATA [CACACA_negctrl_site1135]”, for which the “gcPBM binding intensity (ln)” value amounted to 8.73 ± 0.5.

As for “TTTTCCTTTCACAATGGTACACAAATATACATGCAA [XGTACX_site7244]”, the “gcPBM binding intensity (ln)” value stood at 9.1 ± 0.29.

As to “TAGTAATATGTATCCATACACACATACATTTTATTT [CACACA_site873]”, the “gcPBM binding intensity (ln)” value turned out to be 8.52 ± 0.41.

For the sequence “AAAAAAGAAAAGAAATGTACAGAGCTTATCTTTTTA [XGTACX_site5677]”, the “gcPBM binding intensity (ln)” value stood at 8.65 ± 0.73.

Turning to “TTTTTTAATTTTACATGTACATACAGGTTTTTTTTT [XGTACX_site4539]”, the “gcPBM binding intensity (ln)” value turned out to be 8.8 ± 0.41.

For “TTATTCCTATTTGGATGTACATTTTAATATAAACAT [XGTACX_site4386]”, the “gcPBM binding intensity (ln)” value amounted to 8.57 ± 0.4.

With “TTCAATTTTACATGTAGTACATAAATTATACACAAA [XGTACX_site4946]”, the “gcPBM binding intensity (ln)” value is 8.64 ± 0.3.

On to “ATTAATAAATAAATGACACACACACCCACAAAAAAA [CACACA_site8839]”, for which the “gcPBM binding intensity (ln)” value came out at 8.99 ± 0.45.

With “AATGATAAAAATAAATGTACAGAATGATATTTTTTT [XGTACX_site5976]”, the “gcPBM binding intensity (ln)” value was determined as 8.48 ± 0.46.

Regarding “AAAAAATTGTTTCCCTGTACTCAAAAAAAAAAAAAA [XGTACX_site8070]”, the “gcPBM binding intensity (ln)” value was found to be 8.21 ± 0.42.

As to “TAATAATAGTAAATATGTACATATATATATATATAG [XGTACX_site4602]”, the “gcPBM binding intensity (ln)” value amounted to 8.73 ± 0.3.

With “TAAAATTTACGGTCTTGTTGCGCAACCAACATTGTC [CACACA_negctrl_site1175]”, the “gcPBM binding intensity (ln)” value is 8.82 ± 0.49.

“GTTTTTTTTTTTTTGGTGCGTCATTTTCAAAAGAAG [GTGCAC_site9745]”: the “gcPBM binding intensity (ln)” value came to 8.73 ± 0.29.

In the case of “GTATGTATGTATGTATGTACTTATTTATTTATTTAT [XGTACX_site1921]”, the “gcPBM binding intensity (ln)” value was determined as 9.27 ± 0.13.

Turning to “TAAATTTAAAATGACACACACTAAAATTATTTAAGT [CACACA_site4816]”, the “gcPBM binding intensity (ln)” value is 8.57 ± 0.44.

“AAATATTCATAGTATACACACATTTATTTATAACCA [CACACA_site6502]”: the “gcPBM binding intensity (ln)” value amounted to 8.46 ± 0.36.

On to “ACCTTTAATATATACACACACATAAAAAAAATATAT [CACACA_site1843]”, for which the “gcPBM binding intensity (ln)” value came out at 9.49 ± 0.54.

As for “TAAAAGTATTCCTTTTGTACATATAATGAAAACAAT [XGTACX_site2069]”, the “gcPBM binding intensity (ln)” value was 8.4 ± 0.33.

On to “ATACAATAATATAAATGTACAAATTATATCTTAATT [XGTACX_site6004]”, for which the “gcPBM binding intensity (ln)” value stood at 8.54 ± 0.41.

As for “CTATATTTTTAAAAATGTACTTTATAATAAAATACT [XGTACX_site3593]”, the “gcPBM binding intensity (ln)” value worked out at 8.28 ± 0.43.

Turning to “CTGTTTTTACTAAGTTGTACAAATGATGATACCCTA [XGTACX_site630]”, the “gcPBM binding intensity (ln)” value stood at 8.76 ± 0.33.
